# Laboratory results as given in the supplement of paper PMC8183993.
# Where “and” joins values, the source holds several entries; their conditions need not be identical. Identical values can stand only once. Counter-ions that a name gives are not always drawn. ± gives the standard deviation of the averaged measurements. Whole data set: some 3,100 compounds, median “mean cytoplasmic OPP incorporation (global translation) relative to DMSO” near 100, cut for the lowest 2% near 56. The list shows a part of the results.
# Tested on: U2OS
# Assay: mean cytoplasmic OPP incorporation (global translation) relative to DMSO (% of DMSO); higher = more protein synthesis
# Conditions: 10 µM; 24 h
# Protocol: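 Primary image-based screen in U2OS cells: compounds at 10 uM for 24 h, then a 1 h o-propargyl-puromycin (OPP) pulse, click labelling, and high-throughput microscopy. Mean cytoplasmic OPP intensity and nuclei count were normalised to DMSO wells within each plate (DMSO = 100) and averaged over triplicate plates.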
row,SMILES,mean cytoplasmic OPP incorporation
1,CC[N+](C)(CC)CC(=O)Nc1c(C)cccc1C [N-Methyllidocaine iodide],98.4
2,CC(=O)Oc1cc(C(C)C)c(OCCN(C)C)cc1C [Moxisylyte hydrochoride],96.2
3,O=C1c2c(O)cc(O)cc2OC(c2ccc(O)c(O)c2)C1O (stereo unspecified) [Taxifolin (Dihydroquercetin)],104
4,CN(C)CCCOc1nn(Cc2ccccc2)c2ccccc12 [Benzydamine hydrochloride],102
5,COc1ccc(Nc2nccc(NCCO)n2)cc1 [Cardiogenol C hydrochloride],89.9
6,FC(F)(F)c1ccc(/C=C/c2nc(COc3ccc(CCCCn4ccnn4)cc3)co2)cc1,108
7,FC(F)(F)c1ccc(/C=C/c2nc(COc3ccc(CCCCn4ccnn4)cc3)co2)cc1 [Mubritinib (TAK 165)],103
8,CC(C)NCCN(C(C)C)S(=O)(=O)c1ccc(Cl)cc1Cl,95.9
9,O=C1c2ccccc2C(=O)c2c(NCCc3ccc(O)cc3)ccc(NCCc3ccc(O)cc3)c21,120
10,Nc1ccn(C[C@@H](CO)OCP(=O)(O)O)c(=O)n1 [Cidofovir (Vistide)],101
11,CCCCC(=O)O[C@]1(C(=O)CO)[C@@H](C)C[C@H]2[C@@H]3CCC4=CC(=O)C=C[C@]4(C)[C@@]3(F)[C@@H](O)C[C@@]21C [Betamethasone valerate (Betnovate)],107
12,CC(=O)OCC(=O)[C@@]1(O)CC[C@H]2[C@@H]3CCC4=CC(=O)C=C[C@]4(C)[C@@]3(F)[C@@H](O)C[C@@]21C [Isoflupredone acetate],102
13,CC(=O)OCC(=O)[C@@]1(O)CC[C@H]2[C@@H]3CCC4=CC(=O)CC[C@]4(C)[C@H]3C(=O)C[C@@]21C [Cortisone acetate (Cortone)],101
14,Cn1cc(C(=O)OCC2CCN(CCNS(C)(=O)=O)CC2)c2ccccc21,106
15,C#C[C@]1(O)CC[C@H]2[C@@H]3[C@H](C)CC4=C(CCC(=O)C4)[C@H]3CC[C@@]21C [Tibolone],90.4
16,OC[C@@H](O)[C@@H](O)[C@H](O)[C@@H](O)CO [Sorbitol (Glucitol)],105
17,C[C@@H](CN1CCC(n2c(=O)[nH]c3cc(Cl)ccc32)CC1)NC(=O)c1ccc2ccccc2c1,113
18,O=C(O)COc1cccc(-c2ocnc2-c2nc(-c3ccccc3)c(-c3ccccc3)o2)c1,100
19,COc1cc2nc(N3CCN(C(=O)C4CCCO4)CC3)nc(N)c2cc1OC (stereo unspecified) [Terazosin hydrochloride],96.5 ± 1.3
20,CN1CCN(c2cccc(Nc3nc4c(-c5ccc(S(C)(=O)=O)cc5)cccn4n3)c2)CC1,87.2 ± 3.4
21,Oc1ccc(O)cc1 [Hydroquinone],97
22,CNC(=O)c1nn(C)c2c1C(C)(C)Cc1cnc(Nc3ccc(N4CCN(C)CC4)cc3)nc1-2,89.3 and 44.9
23,CC(C)(O)CC[C@@H](O)[C@](C)(O)[C@H]1CC[C@@]2(O)C3=CC(=O)[C@@H]4C[C@@H](O)[C@@H](O)C[C@]4(C)[C@H]3CC[C@]12C [20-Hydroxyecdysone],106
24,Cc1ccc(/C=N/NC(=O)c2ccccc2Oc2ccccc2)o1,97.8 and 95.7
25,Nc1ccc(S(=O)(=O)Nc2ccc(Cl)nn2)cc1 [Sulfachloropyridazine],116
26,"CCCn1c(=O)c2[nH]c(-c3ccccc3)nc2n(CCC)c1=O [1,3-Dipropyl-8-phenylxanthine]",99.1

row,SMILES,mean cytoplasmic OPP incorporation
1,Cc1cnc(Nc2ccc(N3CCN(C)CC3)cc2)nc1Nc1cccc(S(=O)(=O)NC(C)(C)C)c1,64.2
2,O=C1NC(=O)/C(=C/c2ccc(-c3ccc(F)cc3O)o2)S1,95.3
3,CC(C)CCN1c2nc(Nc3cc(F)c(O)c(F)c3)ncc2N(C)C(=O)C1C (stereo unspecified),100 ± 1.4
4,CC(=O)OC/C=C(C)/C=C/C=C(C)/C=C/C1=C(C)CCCC1(C)C [Retinyl acetate],105
5,Clc1ccc2c(c1)N=C(N1CCNCC1)c1ccccc1N2 [N-Desmethylclozapine],101
6,NS(=O)(=O)c1cc2c(cc1Cl)N=C(CSCc1ccccc1)NS2(=O)=O [Benzthiazide],102
7,O=C1C(CC[S+]([O-])c2ccccc2)C(=O)N(c2ccccc2)N1c1ccccc1 (stereo unspecified) [Sulfinpyrazone],90.3
8,CC1(CN2CCC(n3c(=O)[nH]c4ccccc43)CC2)OCc2ccccc2-n2cccc21 (stereo unspecified),97.3
9,NC(=O)c1noc([C@H](CCCC2CCCCC2)CC(=O)NO)n1,114
10,COc1ccc(CCN(C)CCc2ccc(OC)c(OC)c2)cc1OC,105
11,COc1ccc(CCN(C)CCc2ccc(OC)c(OC)c2)cc1OC [YS-035 hydrochloride],99.3
12,CC(=O)O[C@]1(C(C)=O)CC[C@H]2[C@@H]3C=C(C)C4=CC(=O)CC[C@@H]4[C@H]3CC[C@@]21C [Nomegestrol acetate],113
13,CC[C@@]1(O)C(=O)OCc2c1cc1n(c2=O)Cc2cc3cc(O)ccc3nc2-1 [10-Hydroxycamptothecin],86.6
14,CC(C)Oc1cccc(-n2c(CCc3c[nH]c4ccc(Br)cc34)nc3ccccc3c2=O)c1,106
15,COc1ccc(-c2nc(C(=O)N3CCN(C)CC3)sc2-c2ccc(OC)cc2)cc1,105
16,C[C@@H]1CC(=O)NN=C1c1ccc(NN=C(C#N)C#N)cc1 [Levosimendan],101
17,Cc1nn(C)c2nc(NNC(=O)Nc3cc(Cl)nc(Cl)c3)cc(C(C)C)c12,110
18,C[C@@H](c1ncncc1F)[C@](O)(Cn1cncn1)c1ccc(F)cc1F [Voriconazole],104
19,Cc1c(NC(=O)c2ccc(C(C)(C)C)cc2)cccc1-c1cn(C)c(=O)c(Nc2ccc(C(=O)N3CCOCC3)cc2)n1,110
20,O=C(O)Cc1ccccc1Nc1c(Cl)cccc1Cl [Diclofenac Diethylamine],101
21,O=C(O)Cc1ccccc1Nc1c(Cl)cccc1Cl [Diclofenac sodium],107
22,CN1CCN(CCCN2c3ccccc3Sc3ccc(S(=O)(=O)N(C)C)cc32)CC1 [Thioproperazine dimesylate],108
23,CN[C@@H](C)[C@H]1[C@H](O)C[C@@]2(C)[C@@H]3CC[C@H]4C(C)(C)[C@@H](NC)CC[C@@]45C[C@@]35CC[C@]12C [Cyclovirobuxin D (Bebuxine)],95.1
24,O=C(O)CC/C=C\C[C@H]1CO[C@@H](c2ccccc2Cl)O[C@H]1c1ccccc1O,97.5
25,C[C@]12C=CC(=O)C=C1CC[C@@H]1[C@@H]2[C@@H](O)C[C@@]2(C)[C@H]1CC[C@]2(O)C(=O)CO [Prednisolone],96.5
26,O=c1ncn2nc(Sc3ccc(F)cc3F)ccc2c1-c1c(Cl)cccc1Cl,99

row,SMILES,mean cytoplasmic OPP incorporation
1,O=c1[nH]cc(F)c(=O)[nH]1 [5-fluorouracil],107
2,CS(=O)(=O)c1ccc([C@@H](O)[C@@H](CO)NC(=O)C(Cl)Cl)cc1 [Thiamphenicol],101
3,Cc1cncc(CN2CCC(=C3c4ccc(Cl)cc4CCc4cccnc43)CC2)c1 [Rupatadine Fumarate],115
4,CC(C)Cc1ccc([C@H](C)C(=O)O)cc1 [S-(+)-ibuprofen],101
5,CC(=O)Oc1cc(C(F)(F)F)ccc1C(=O)O [Triflusal],107
6,CC(C)C(=O)SCCCCCCC(=O)Nc1nc(-c2ccccc2)cs1,117
7,CCCCCCCC/C=C\CCCCCCCC(=O)NCc1ccc(O)c(OC)c1 [Olvanil],100
8,CNC(=O)c1ccc2cc([C@@]3(O)CCn4cncc43)ccc2c1 [TAK-700 (Orteronel)],104
9,N=c1ccn2c(n1)O[C@H]1[C@H](O)[C@@H](CO)O[C@H]12 [Cyclocytidine HCl],88.6
10,Cc1cc(NC(=O)C2=C(O)c3ccccc3S(=O)(=O)N2C)no1 [Isoxicam],104
11,Cc1cc(C(C)(C)CC(C)(C)C)ccc1OCCOCC[N+](C)(C)Cc1ccccc1 [Methyl benzethonium chloride],108
12,C[C@H](CCC(=O)NCC(=O)O)[C@H]1CC[C@H]2[C@@H]3CC[C@@H]4C[C@H](O)CC[C@]4(C)[C@H]3C[C@H](O)[C@]12C [Glycodeoxycholic acid],102
13,CN(C)CCCN1c2ccccc2CCc2ccc(Cl)cc21 [Clomipramine hydrochloride],106 ± 7.5
14,CO[C@@]1(NC(=O)C2SC(=C(C(N)=O)C(=O)O)S2)C(=O)N2C(C(=O)O)=C(CSc3nnnn3C)CS[C@@H]21 (stereo partly specified) [Cefotetan],100
15,COc1cc(Br)c(S(=O)(=O)Nc2ccc(Cl)c(O[C@@H]3CCN(C)C3)c2)cc1OC,106
16,CCN(CC)CCOC(=O)C1(c2ccc([N+](=O)[O-])cc2)CCCC1 [Nitrocaramiphen hydrochloride],93.8 ± 2.4
17,Clc1ccccc1CN1CCc2sccc2C1 [Ticlopidine hydrochloride],97.5
18,Nc1ccc(O)c(C(=O)O)c1 [Mesalamine],102
19,N#Cc1ccc(NCCNCC(=O)N2CCC[C@H]2C#N)nc1 [NVP DPP 728 dihydrochloride],90.3
20,CN(C)c1nc(N)c(C(=O)Nc2cccnc2)nc1Cl [ACDPP hydrochloride],97.2
21,COc1cc2c(cc1O)CC[C@@H]1[C@@H]2CC[C@]2(C)[C@@H](O)CC[C@@H]12 [2-Methoxyestradiol],81.5
22,COC(=O)C1=C(C)NC(C)=C(C(=O)OC)C1c1ccccc1[N+](=O)[O-] [Nifedipine],92.7 ± 5.1
23,C#C[C@]1(O)CC[C@H]2[C@@H]3CCC4=CC(=O)CC[C@@H]4[C@H]3CC[C@@]21C [Norethindrone],87.3
24,C#C[C@]1(O)CC[C@H]2[C@@H]3CCC4=CC(=O)CC[C@@H]4[C@H]3CC[C@@]21C [Norethindrone (Norethisterone)],99.2
